± gives the standard error. Variants at the floor of the assay are shown more often than the library holds them.
B1: glmS ribozyme (parent)
chain: AUAAAAGCGCCAGAACUACAGAAAUGUAGUUGACGAGGAGGAGGUUUAUCGAAUUUUCGGCGGAUGCCUCCAAA

Columns and labels:
Details in all cases: with glucosamine-6-phosphate
glucosamine-6-phosphate [1] = variants of: B1; experiment: self-cleavage kobs at 40 uM GlcN6P; higher = faster cleavage; RNA array
In short: (§1)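 Over ~14 h at 37 °C, tiles were imaged as glucosamine-6-phosphate (40 μM to 10 mM) in HEPES/KCl/Mg(OAc)2 buffer flowed across sequenced MiSeq chips. The chips carried barcoded ribozyme variants transcribed in situ by E. coli RNA polymerase and tracked with a hybridised Cy3 probe. After normalisation to baseline and to non-cleaving reference variants, one- or two-exponential decay fits of per-tile medians gave kobs. kcat and KM followed from weighted Michaelis–Menten fits across concentrations.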

glucosamine-6-phosphate [2] = variants of: B1; experiment: self-cleavage kobs at 10000 uM GlcN6P; higher = faster cleavage; RNA array
In short: as §1

glucosamine-6-phosphate [3] = variants of: B1; experiment: self-cleavage kobs at 640 uM GlcN6P; higher = faster cleavage; RNA array
In short: as §1

glucosamine-6-phosphate [4] = variants of: B1; experiment: self-cleavage kobs at 160 uM GlcN6P; higher = faster cleavage; RNA array
In short: as §1

glucosamine-6-phosphate [5] = variants of: B1; experiment: self-cleavage kobs at 2500 uM GlcN6P; higher = faster cleavage; RNA array
In short: as §1

AUAAAAGCCCCAGAACUACAGAAAUGUAGUUGACGAGGAGGAAUUUUAUCGAAUUUUCGGCGGAUGCCUGCAAA [G9C G43A G44U C70G]
self-cleavage kobs at 40 uM GlcN6P (glucosamine-6-phosphate [1]): < 1e-05 s⁻¹ | self-cleavage kobs at 10000 uM GlcN6P (glucosamine-6-phosphate [2]): < 1e-05 s⁻¹

AUAAAAGCCCCAGAACUACAGAAAUGUAGUUGUCGAGGAGGAGUUUUAUCGAAUUUUCGGCGGAUGCCUCCAAA [G9C A33U G44U]
self-cleavage kobs at 40 uM GlcN6P (glucosamine-6-phosphate [1]): < 1e-05 s⁻¹ | self-cleavage kobs at 640 uM GlcN6P (glucosamine-6-phosphate [3]): < 1e-05 s⁻¹ | self-cleavage kobs at 160 uM GlcN6P (glucosamine-6-phosphate [4]): < 1e-05 s⁻¹ | self-cleavage kobs at 2500 uM GlcN6P (glucosamine-6-phosphate [5]): < 1e-05 s⁻¹ | self-cleavage kobs at 10000 uM GlcN6P (glucosamine-6-phosphate [2]): < 1e-05 s⁻¹

AUAAAAGCCCCAGAACUACAGAAAUGUAGUUGACGAGGAGGAGGUUUAUCGAAUUUUCGGCGGAUACCUACAAA [G9C G66A C70A]
self-cleavage kobs at 40 uM GlcN6P (glucosamine-6-phosphate [1]): < 1e-05 s⁻¹ | self-cleavage kobs at 160 uM GlcN6P (glucosamine-6-phosphate [4]): < 1e-05 s⁻¹ | self-cleavage kobs at 2500 uM GlcN6P (glucosamine-6-phosphate [5]): < 1e-05 s⁻¹

AUAAAAGCCCCAGAAUUACAGAAAUGUAGUUGACGAGGAGGAGGUUUAACGAAUUUUCGGUGGAUGCCUCCAAA [G9C C16U U49A C61U]
self-cleavage kobs at 40 uM GlcN6P (glucosamine-6-phosphate [1]): < 1e-05 s⁻¹ | self-cleavage kobs at 10000 uM GlcN6P (glucosamine-6-phosphate [2]): < 1e-05 s⁻¹

AUAAAAGCCCCAGAACUACAGAAAUGUAGUUGACGAGGAGGAGGUUAAUCGAAUUUUCGGCGGAUGCCUCCAAA [G9C U47A]
self-cleavage kobs at 40 uM GlcN6P (glucosamine-6-phosphate [1]): < 1e-05 s⁻¹ | self-cleavage kobs at 2500 uM GlcN6P (glucosamine-6-phosphate [5]): < 1e-05 s⁻¹

AUAAAAGCCCCAGAACUACAGAAAUGUAGUUGACGAGGAGGAGGUUGAUCGAAUUUUCGGCGGAUGCCUCCAAA [G9C U47G]
self-cleavage kobs at 40 uM GlcN6P (glucosamine-6-phosphate [1]): < 1e-05 s⁻¹ | self-cleavage kobs at 10000 uM GlcN6P (glucosamine-6-phosphate [2]): < 1e-05 s⁻¹

AUAAAAGCCCCAGAACUACAGAAAUGUAGUUGACGAGGAGGAGGUUUAUCGAAUUUUCGGCGGAUGCGUCCAAA [G9C C68G]
self-cleavage kobs at 40 uM GlcN6P (glucosamine-6-phosphate [1]): < 1e-05 s⁻¹ | self-cleavage kobs at 640 uM GlcN6P (glucosamine-6-phosphate [3]): < 1e-05 s⁻¹ | self-cleavage kobs at 160 uM GlcN6P (glucosamine-6-phosphate [4]): < 1e-05 s⁻¹ | self-cleavage kobs at 2500 uM GlcN6P (glucosamine-6-phosphate [5]): < 1e-05 s⁻¹ | self-cleavage kobs at 10000 uM GlcN6P (glucosamine-6-phosphate [2]): < 1e-05 s⁻¹

AUAAAAGCCCCAGAACUACAGAAAUGUAGUUGACGAGGAGGAGGUUUAUCGAAUUUUCGUCGGAUGCCUCCAAA [G9C G60U]
self-cleavage kobs at 40 uM GlcN6P (glucosamine-6-phosphate [1]): < 1e-05 s⁻¹ | self-cleavage kobs at 160 uM GlcN6P (glucosamine-6-phosphate [4]): < 1e-05 s⁻¹ | self-cleavage kobs at 2500 uM GlcN6P (glucosamine-6-phosphate [5]): < 1e-05 s⁻¹ | self-cleavage kobs at 10000 uM GlcN6P (glucosamine-6-phosphate [2]): < 1e-05 s⁻¹

AUAAAAGCCCCAGAACUACAGAAAUGUAGUUGACGAGGAGGAGGUUUAUCGACUUUUCGGCGGAUGCCUCCAAA [G9C A53C]
self-cleavage kobs at 40 uM GlcN6P (glucosamine-6-phosphate [1]): < 1e-05 s⁻¹ | self-cleavage kobs at 640 uM GlcN6P (glucosamine-6-phosphate [3]): < 1e-05 s⁻¹ | self-cleavage kobs at 160 uM GlcN6P (glucosamine-6-phosphate [4]): < 1e-05 s⁻¹ | self-cleavage kobs at 10000 uM GlcN6P (glucosamine-6-phosphate [2]): < 1e-05 s⁻¹

AUAAAAGCUCCAGAACUACAGAAAUGUAGUUGACGAGGAGGAGGUUUAUCGAAUUUUCGGCGGAUGCCUACAAA [G9U C70A]
self-cleavage kobs at 40 uM GlcN6P (glucosamine-6-phosphate [1]): < 1e-05 s⁻¹ | self-cleavage kobs at 160 uM GlcN6P (glucosamine-6-phosphate [4]): < 1e-05 s⁻¹ | self-cleavage kobs at 10000 uM GlcN6P (glucosamine-6-phosphate [2]): < 1e-05 s⁻¹

AUAAAAGCCCCAGAACUACAGAAAUGUAGUUGACGAGGAGGAGGUUUAUCGAAUUUUCGGCGGAUGCCACCAAA [G9C U69A]
self-cleavage kobs at 40 uM GlcN6P (glucosamine-6-phosphate [1]): < 1e-05 s⁻¹ | self-cleavage kobs at 640 uM GlcN6P (glucosamine-6-phosphate [3]): < 1e-05 s⁻¹

AUAAAAGCCCCAGAACUACAGAAAUGUAGUUGACGAGGAGGAUUUUUAUCGAAUUUUAGGCGGAUGCCUCAAAA [G9C G43U G44U C58A C71A]
self-cleavage kobs at 40 uM GlcN6P (glucosamine-6-phosphate [1]): < 1e-05 s⁻¹

AUAAAAGCUCCCGAACUACAGAAAUGUAGUUGACGAGGAGGAGGUUUAACGAAUUUUCGGCGGAUGCCUCCAAA [G9U A12C U49A]
self-cleavage kobs at 40 uM GlcN6P (glucosamine-6-phosphate [1]): < 1e-05 s⁻¹

AUAAAAGCUCCAGAACUACAGAAAUGUAGUUGACGAGGAGGAGGUUUAUCGAAUUUUCGGGGGAUGCCUCCAAA [G9U C61G]
self-cleavage kobs at 40 uM GlcN6P (glucosamine-6-phosphate [1]): < 1e-05 s⁻¹ | self-cleavage kobs at 640 uM GlcN6P (glucosamine-6-phosphate [3]): 4.57e-05 ± 1.2e-05 s⁻¹ | self-cleavage kobs at 2500 uM GlcN6P (glucosamine-6-phosphate [5]): 9.21e-05 ± 1.7e-05 s⁻¹

AUAAAAGCCCGUGAACUACAGAAAUGUAGUUGACGAGGAAGAGGUUUAUCGAAUUUUCGGCGGAUGCCUCCAAA [G9C C11G A12U G40A]
self-cleavage kobs at 40 uM GlcN6P (glucosamine-6-phosphate [1]): < 1e-05 s⁻¹

AUAAAAGCCCCAGAACUACAGAAAUGUAGUUGACGUGGAGUAGGUUUAUCGAAUUUUCGGCGGAUGCCUCCAAA [G9C A36U G41U]
self-cleavage kobs at 40 uM GlcN6P (glucosamine-6-phosphate [1]): < 1e-05 s⁻¹ | self-cleavage kobs at 10000 uM GlcN6P (glucosamine-6-phosphate [2]): < 1e-05 s⁻¹

AUAAAAGCCCCAGAACUACAGAAAUGUAGUUGACGAGGAUGAGGUUUAUCGAAUUAUGGGCGGAUGCCUCCAAA [G9C G40U U56A C58G]
self-cleavage kobs at 40 uM GlcN6P (glucosamine-6-phosphate [1]): < 1e-05 s⁻¹ | self-cleavage kobs at 10000 uM GlcN6P (glucosamine-6-phosphate [2]): < 1e-05 s⁻¹

AUAAAAGCCCCAAAACUACAGAAAUGUAGUUGACGAGGAGGAGGUUUUUCGAAUUUUCGGCGGAUGCCUCCAAA [G9C G13A A48U]
self-cleavage kobs at 40 uM GlcN6P (glucosamine-6-phosphate [1]): < 1e-05 s⁻¹ | self-cleavage kobs at 2500 uM GlcN6P (glucosamine-6-phosphate [5]): < 1e-05 s⁻¹

AUAAAAGCUCCAGAACUACAGAAAUGUAGUUGACGAGGAGGCGGUUUAUCGAAUUCUCGGCGGAUGCCUCUAAA [G9U A42C U56C C71U]
self-cleavage kobs at 40 uM GlcN6P (glucosamine-6-phosphate [1]): < 1e-05 s⁻¹

AUAAAAGCUCCAGUACUACAGAAAUGUAGUUUACGAGGAGGAGGUUUAUCGAAUUUUCGGCGGAUGCCUCCAAA [G9U A14U G32U]
self-cleavage kobs at 40 uM GlcN6P (glucosamine-6-phosphate [1]): < 1e-05 s⁻¹ | self-cleavage kobs at 10000 uM GlcN6P (glucosamine-6-phosphate [2]): < 1e-05 s⁻¹

AUAAAAGCUCCAGAACUACAGAAAUGUAGUUGAGGAGGAGGAGGUUUAUCGAAUUUUCGGCGGAUGCCUCCAAA [G9U C34G]
self-cleavage kobs at 40 uM GlcN6P (glucosamine-6-phosphate [1]): < 1e-05 s⁻¹ | self-cleavage kobs at 2500 uM GlcN6P (glucosamine-6-phosphate [5]): < 1e-05 s⁻¹ | self-cleavage kobs at 10000 uM GlcN6P (glucosamine-6-phosphate [2]): < 1e-05 s⁻¹

AUAAAAGCUCCUGAACUACAGAAAUGUAGGUGACGAGGAGGAGGUUUAUCGAAUAUUCGGCGGAUGCCUCCAAA [G9U A12U U30G U55A]
self-cleavage kobs at 40 uM GlcN6P (glucosamine-6-phosphate [1]): < 1e-05 s⁻¹ | self-cleavage kobs at 10000 uM GlcN6P (glucosamine-6-phosphate [2]): < 1e-05 s⁻¹

AUAAAAGCCCCAGAACUACAGAAAUGUAGUUGACGAGGAGGAGGUUUAGCGAAUUUUCGGCGGAUGCCUCCAAA [G9C U49G]
self-cleavage kobs at 40 uM GlcN6P (glucosamine-6-phosphate [1]): < 1e-05 s⁻¹ | self-cleavage kobs at 10000 uM GlcN6P (glucosamine-6-phosphate [2]): < 1e-05 s⁻¹

AUAAAAGCUCCUGAACUACAGAAAUGUAGUUGACGAGGAGGAGGUUUAUCGAAUUUUCGGCGGAUGCCUCUAAA [G9U A12U C71U]
self-cleavage kobs at 40 uM GlcN6P (glucosamine-6-phosphate [1]): < 1e-05 s⁻¹ | self-cleavage kobs at 640 uM GlcN6P (glucosamine-6-phosphate [3]): < 1e-05 s⁻¹ | self-cleavage kobs at 160 uM GlcN6P (glucosamine-6-phosphate [4]): < 1e-05 s⁻¹ | self-cleavage kobs at 2500 uM GlcN6P (glucosamine-6-phosphate [5]): < 1e-05 s⁻¹

AUAAAAGCUCAAGAACUACAGAAAUGUAGUUGACGAGGAGGAGGUUUACCGAAUUUUCGGCGGGGGCCUUCAAA [G9U C11A U49C A64G U65G C70U]
self-cleavage kobs at 40 uM GlcN6P (glucosamine-6-phosphate [1]): < 1e-05 s⁻¹

AUAAAAGCUCCAGAACUACAGAAAUGUAGUUGUCGAGGAGGAGGGUUAUCGAAUUUUCGGCUGAUGCCUCCAAA [G9U A33U U45G G62U]
self-cleavage kobs at 40 uM GlcN6P (glucosamine-6-phosphate [1]): < 1e-05 s⁻¹ | self-cleavage kobs at 10000 uM GlcN6P (glucosamine-6-phosphate [2]): < 1e-05 s⁻¹

AUAAAAGCUCCAAAACUACAGAAAUGUAGUUGACGAGGAGGAGGGUUAUCGAAUUUUCGGCGGAUGCCUCCAAA [G9U G13A U45G]
self-cleavage kobs at 40 uM GlcN6P (glucosamine-6-phosphate [1]): < 1e-05 s⁻¹ | self-cleavage kobs at 10000 uM GlcN6P (glucosamine-6-phosphate [2]): < 1e-05 s⁻¹

AUAAAAGCUCCAGAAGUACAGAAAUGUAGUUGACGAGGAGGAGGUUUAUCGAAUUUUCGGCGGAUGCCUCCAAA [G9U C16G]
self-cleavage kobs at 40 uM GlcN6P (glucosamine-6-phosphate [1]): < 1e-05 s⁻¹ | self-cleavage kobs at 2500 uM GlcN6P (glucosamine-6-phosphate [5]): < 1e-05 s⁻¹

AUAAAAGCCCCAGAACUACAGAAAUGUAAUUGACGAGGAGGAGGUUUAUCGAAUUUUCGGCGGAUGCCUCCAAA [G9C G29A]
self-cleavage kobs at 40 uM GlcN6P (glucosamine-6-phosphate [1]): < 1e-05 s⁻¹ | self-cleavage kobs at 640 uM GlcN6P (glucosamine-6-phosphate [3]): < 1e-05 s⁻¹ | self-cleavage kobs at 160 uM GlcN6P (glucosamine-6-phosphate [4]): < 1e-05 s⁻¹ | self-cleavage kobs at 2500 uM GlcN6P (glucosamine-6-phosphate [5]): < 1e-05 s⁻¹ | self-cleavage kobs at 10000 uM GlcN6P (glucosamine-6-phosphate [2]): < 1e-05 s⁻¹

AUAAAAGCUUCAGAACUACAGAAAUGUAGUUGACGAGGAGGAGGUUUAUCGAAUUUUCGGCGGAUGCCUCGAAA [G9U C10U C71G]
self-cleavage kobs at 40 uM GlcN6P (glucosamine-6-phosphate [1]): < 1e-05 s⁻¹ | self-cleavage kobs at 10000 uM GlcN6P (glucosamine-6-phosphate [2]): < 1e-05 s⁻¹

AUAAAAGCCCCAGAACUACAGAAAUGUAGUUGAAGAGGAGGUAGUUUAUCGAAUUUUCGGCGGAUGCCUCCAAA [G9C C34A A42U G43A]
self-cleavage kobs at 40 uM GlcN6P (glucosamine-6-phosphate [1]): < 1e-05 s⁻¹
